# Experimental data from the supplement of paper PMC3334620.
# Whole data set: some 33,000 sequences, median “E-score (-0.5 to 0.5)” near -0.017, cut for the highest 2% near 0.3. The list shows a part of the results.
# Molecular target: T1, Sut1 (UniProt P53032)
# T1 sequence: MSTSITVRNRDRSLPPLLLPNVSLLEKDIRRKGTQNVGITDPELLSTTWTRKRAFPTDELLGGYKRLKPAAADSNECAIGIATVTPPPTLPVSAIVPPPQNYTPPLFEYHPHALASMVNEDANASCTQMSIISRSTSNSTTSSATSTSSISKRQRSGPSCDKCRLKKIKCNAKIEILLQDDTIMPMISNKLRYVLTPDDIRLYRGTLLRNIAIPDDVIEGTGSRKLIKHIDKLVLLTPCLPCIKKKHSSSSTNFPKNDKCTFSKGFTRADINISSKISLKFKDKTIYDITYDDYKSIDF
# Experiment: PBM E-score (8-mer binding enrichment) (E-score (-0.5 to 0.5)); higher = stronger / more preferred TF binding; most listed sequences are background and not binding sites
# Conditions: protein concentration: 200 nM; construct: GST-full length
# Procedure: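 Universal 'all 10-mer' protein binding microarrays (Agilent AMADID 015681) probed with GST-tagged S. cerevisiae TFs (full-length or DBD) made by in vitro transcription/translation (PURExpress), about 100-200 nM. Bound TF was detected with fluorescent anti-GST. Each ungapped 8-mer (which stands for itself and its reverse complement) is scored by the PBM enrichment score (E-score), a modified Wilcoxon-Mann-Whitney statistic from -0.5 to +0.5, computed with the Universal PBM Analysis Suite. Scale: above 0.35 generally sequence-specific binding.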
row,Sequence,PBM E-score
1,CAGGATGG,-0.222
2,GGGCGAAC,-0.118
3,CGGGCGAA,0.00055
4,GTCGGTTA,0.0871
5,ACATTGGC,-0.21
6,CATCTTCC,0.169
7,ACCGTCGT,-0.0529
8,CACCGGAC,0.409
9,CTATTTCA,0.179
10,CTGGGCTA,-0.198
11,AAATCATA,0.151
12,AGCGACGG,-0.00842
13,ACGAGCAG,-0.214
14,CGCCAGGA,-0.196
15,AAGCGAAC,0.0859
16,ATACGACC,-0.122
17,CGCGCTCA,-0.0778
18,GAATTGCC,-0.145
19,ATATTCCC,0.116
20,ATCAACTA,0.215
21,GCAAAGGA,0.0236
22,ACATACCC,0.05
23,CAAGAGGA,-0.0659
24,AAAGCAGA,0.0353
25,GACCAACC,-0.0931

row,Sequence,PBM E-score
1,CGCCAGCG,-0.0723
2,AAGGTTTA,0.094
3,ACATGATC,0.116
4,TTGTGAAA,0.137
5,CACCCTGC,-0.0761
6,ACGGAAGC,0.101
7,TACCTCAA,0.0794
8,GCATTCCC,-0.228
9,ATCTTCTA,0.00445
10,AAGGGTCA,0.00277
11,GATTTGGA,0.167
12,CATAAATC,0.0931
13,GAGTAACA,0.181
14,CCGGGAAA,0.149
15,AAAGCATG,-0.0268
16,ATTATGCA,0.0357
17,GGGAGGGA,-0.103
18,GCTCTCCC,-0.231
19,AAAATATT,0.206
20,ATGTCCGA,0.45
21,AATGGGGC,-0.243
22,AGTGGACC,-0.278
23,CAGGGATG,-0.12
24,CTGTAACC,0.112
25,CATTAAAC,0.0995

row,Sequence,PBM E-score
1,CGATTTAA,0.242
2,GGATTTGA,-0.0473
3,CGTCCCCA,-0.14
4,CCGCTATC,0.0553
5,AATACGCC,0.0185
6,AAAGCACT,0.121
7,CTCTGCAC,-0.252
8,GGGAATAA,0.233
9,ATAAAAAG,0.241
10,AAAGCGAC,0.0737
11,CCTATACA,-0.0542
12,ACGGGGGA,-0.0258
13,ACGACCCG,-0.214
14,CCATCGCC,-0.197
15,CACGGTGC,-0.235
16,CATTATCG,0.072
17,ATCGGTCA,-0.031
18,ACAAGGAT,-0.0117
19,GAATAATA,0.222
20,GACGGTTA,-0.0273
21,CTGGTGAA,-0.109
22,ACGGAACC,0.163
23,CTACGTAC,-0.0782
24,ACAGATAC,0.071
25,ATACACAT,0.209

row,Sequence,PBM E-score
1,GTACAGCA,-0.136
2,AATTCGGT,0.255
3,ACCTTAAA,0.198
4,AGCCTAGG,-0.1
5,AGGTTTTC,0.0964
6,GGTATCAC,-0.189
7,GGCATCAC,-0.214
8,ACGATTGC,0.0877
9,ACTTAATC,0.145
10,GTCACCTA,-0.211
11,GTCAGTCA,0.00573
12,CTGTATAC,-0.00897
13,GCGCTGAC,-0.206
14,CTGCACCC,-0.254
15,CTATTTTC,0.205
16,CGAGGAAA,0.12
17,ATGACGGC,-0.175
18,CATCCCAG,-0.209
19,CGCAGACA,0.0588
20,CATAGTGA,-0.0558
21,ATGGTCAA,0.0291
22,ATATTCCA,0.177
23,CATATACA,0.17
24,GGATGCCC,-0.313
25,ACCGAGCT,-0.044

row,Sequence,PBM E-score
1,CTAGGTAC,-0.0605
2,TCGTTGAA,0.106
3,ATAACTCC,0.365
4,AAATCCTC,-0.108
5,CGCTAAAG,-0.0253
6,AAAAGTCA,0.15
7,AAGGTACA,-0.127
8,CAAAGAGA,0.0454
9,ACTTGTGC,-0.024
10,CAGCAGAG,-0.286
11,AAGCGTCC,-0.207
12,AGATATGC,-0.0536
13,GCTGGCCC,-0.376
14,CTTTACAC,0.0931
15,AGTTCTGG,0.0458
16,CAATCATC,-0.136
17,GCGAGACA,-0.25
18,GATTCGCA,0.113
19,ACCATGCA,-0.0585
20,CAATCATG,-0.00503
21,AAGCCCAC,-0.185
22,CTTCGCCA,-0.115
23,ACCGCCAT,-0.158
24,CAAAATCG,-0.0384
25,GATTACCC,-0.0142

row,Sequence,PBM E-score
1,GATAGGCC,-0.176
2,ACGTCCCG,-0.157
3,CCTAAGGC,-0.242
4,GACCCGAA,0.0553
5,AGACTTGC,-0.0197
6,CGGATCCC,-0.0536
7,ACGCGTCC,-0.228
8,AGCATTTA,0.0213
9,CTGGCAGC,-0.153
10,CTGGCCGA,-0.022
11,ACAATGGC,-0.0383
12,GTACTGAA,0.159
13,CGAGATCC,-0.0129
14,ACAAGCTG,-0.17
15,AGGAGGTG,-0.247
16,ATCGAGAA,0.0284
17,GCGTAGCC,-0.337
18,CATGGTCA,-0.065
19,CACCTAAA,-0.0555
20,AAGCAGTA,0.0176
21,CAAGCGCG,-0.142
22,GGCTAATA,0.17
23,AGAAAGGG,0.108
24,CGCTTTGC,0.0427
25,GTCTTCTA,0.174

row,Sequence,PBM E-score
1,CTAATTCC,0.165
2,AGTCACGG,0.0701
3,AGGCGCAT,-0.153
4,CACACGCC,-0.0411
5,ATTGTGAC,0.0474
6,GTCAAGAA,0.108
7,ATTTAAAA,0.285
8,GGGACCTA,0.0551
9,AGAGTCTA,-0.0972
10,CGCACACG,-0.126
11,CCCAAGTA,-0.257
12,CCCGGCAC,-0.273
13,AATCAAGG,0.113
14,CTAGCAGA,-0.0508
15,CTGAGGGA,-0.297
16,GCAGTTTA,-0.207
17,GTACGCAA,0.029
18,AGGTGTTG,0.0734
19,TAGAAGCA,-0.0194
20,GGAGTGAA,0.157
21,GTGTCGGA,0.292
22,TCATTCAA,0.199
